± gives the standard deviation. The full ranking holds about 3,700 sequences; the median of “pre-steady-state target cleavage rate” is about 0.02, and the highest 2% start at about 0.23. This is a selection; strong and weak results do not stand in their true shares. Bounds are passed on as bounds.

The test system of this assay is MILI (PIWIL2) piRISC loaded with Kctd7 piRNA (26 nt). The assay can be described thus: pre-steady-state target cleavage rate (min^-1); MIWI and MILI are mouse PIWI proteins and EfPiwi is from a freshwater sponge; tags in brackets are library labels; higher = faster piRNA-guided slicing of the target. Conditions: guide: Kctd7 piRNA 5'p-UGUUAAUCUCUCAGAGAAGGUGACAG; auxiliary factor: 500 nM mouse GTSF1. An outline of the steps:
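The pre-steady-state cleavage rate came from a burst-and-steady-state fit to pooled data from three Cleave-'n-Seq trials, in which uncleaved targets were sequenced and normalised to depth and to weakly complementary targets. Each reaction held 0.1 nM transcribed, DNA-blocked target RNA library and 1 nM active affinity-purified piRISC carrying one synthetic guide, with or without 500 nM GTSF1 partner protein, in HEPES–potassium acetate buffer at 33 °C for 0–8 or 0–960 min. k3 was capped at 0.0001 min^-1.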
For UAGUGACAGUCCUUCUCUGAGAUGAUUAACA, the “pre-steady-state target cleavage rate” value came to 0.0422 ± 0.0057. Under UAGUGACAGUGCUUGUCUGAGUGAUUAACA stands 0.00281 ± 0.0027. With UAGUGACACUCCUUCUCUCAGAGAUUAACA the figure was 0.0254 ± 0.0053; with UAGUGACUCACCUUCUCUGAGAGAUAUUCA, 0.0272 ± 0.013; with UAGUGUGUCACCUUCUCUGAGAGUUUAACA, 0.316 ± 0.078.

On to UAGUGAGUCUCCUUCUCAGAGAGAUUAACA, for which the “pre-steady-state target cleavage rate” value turned out to be 0.0772 ± 0.013. With UAGUGUGUCACCGUUCUCUGAGAGAUUAACA, the “pre-steady-state target cleavage rate” value was 0.122 ± 0.0097.

For the sequence UAGUCUGUCGCCUUCUCUGAGAGAUUAACA, the “pre-steady-state target cleavage rate” value came out at 0.224 ± 0.019. Take UAGUCUGUCACCUUCUCUGACGAGAUUAACA: the “pre-steady-state target cleavage rate” value was 0.0187 ± 0.007. With UAGUGACAGACCUUCACAGAGAGAUUAACA the figure was 0.0161 ± 0.0072. Under UAGUGACAGUGGAACUCUGACAGAUUAACA stands below 0.0001. On to UAGUGACAGUCCUUCUCUGAGAUAUUAACA, for which the “pre-steady-state target cleavage rate” value amounted to 0.0253 ± 0.0072. Regarding UAGUGACAGACCUUGUCUGAGAGAUUAUCA, the “pre-steady-state target cleavage rate” value was 0.00959 ± 0.007.

Take UAGUGACUCACCAUCUCUGAGAGUUUAACA: the “pre-steady-state target cleavage rate” value turned out to be 0.0885 ± 0.018. With UAGUGACAGUGGAAGUCUGAGAGAUUAAGA the figure was below 0.0001; with UAGUGACAGACCAUCUCUGAGAGAUUAUCA, 0.0129 ± 0.0056. For the sequence UAGUGACAGUGCUUCUCUGACAGAUAAACA, the “pre-steady-state target cleavage rate” value is below 0.0001. In the case of UAGUGACAGACCUACUCUGAGAGAUUAUCA, the “pre-steady-state target cleavage rate” value came to 0.032 ± 0.0083. Under UAGUGACAGUGCUUCUCAGAGACAUUAACA stands 0.00484 ± 0.0036. Under UAGUGACAGUCCUUCUCUGAGAGAAUUAACA stands 0.0432 ± 0.012; under UAGUGACAGUCCUUCUCUGACAGAUUAACA, 0.00834 ± 0.0028. With “UAGUGACAGUCCUUCUCUGAGUCUAAUUGA [g10:g20:cont:t1A]” the figure was below 0.0001; with UAGUGAGUCACCUUCUCUGAGAGAUUUACA, 0.136 ± 0.038; with UAGUGACAGUGCUACUCUGUGAGAUUAACA, 0.00373 ± 0.0014. For the sequence UAGUGACAGACCUUCUCAGAGAGAUUAAGA, the “pre-steady-state target cleavage rate” value worked out at 0.0161 ± 0.006. Consider UAGUGACAGUGCCUUCUCUGAGAGAUUAACA, for which the “pre-steady-state target cleavage rate” value is 0.0773 ± 0.0049. With UAGUGACUCACCUUCACUGAGAGAUUUACA the figure was 0.154 ± 0.027; with UAGUGACAGUCUCUUCUCUGAGAGAUUAACA, 0.105 ± 0.019; with UAGUGUGUCACCAUCUCAGAGAGAUUAACA, 0.0929 ± 0.0095. With UAGUGACAGUGGUUCUCUGAGAGAUUAACCA the figure was 0.0085 ± 0.0022; with UAGUGACACACCUAGACUGAGAGAUUAACA, 0.0101 ± 0.0027. With UAGUGUUGUCACCUUCUCUGAGAGAUUAACA the figure was 0.221 ± 0.014.

With UAGUGACAGUGGAAGUCUGAGGAUUAACA, the “pre-steady-state target cleavage rate” value was below 0.0001. With UAGUCUGUCACCUUCUCUCAGUGAUUAACA the figure was 0.00622 ± 0.0035; with UAGUCUGUCACCUUCUCUGUGACAUUAACA, 0.0172 ± 0.005. With UAGUGUGUCACCUUGUCUGACAGAUUAACA the figure was 0.0668 ± 0.012. With UAGUGACACACCUUCUCUGGAGAUUAACA, the “pre-steady-state target cleavage rate” value turned out to be 0.00696 ± 0.004. Under UAGUCUGACACCUUCUCUGAGAGAAUAACA stands 0.0874 ± 0.018; under UAGUGACAGACCUUCUGUGAGAGAUUUACA, 0.0618 ± 0.022; under UAGUGACAGAGCUUCUCUGAGAGAUUUACA, 0.0241 ± 0.01. Under UAGUGACAGUCCAUCUCUGAGAGAUUAUCA stands 0.00419 ± 0.0024; under UAGUGACAGUUCUUCUCUGAGAGAUUAACA, 0.0485 ± 0.0046; under UAGUGACAGUCCUUCUCUGUGACAUUAACA, 0.00287 ± 0.0021.

With UAGUGACUCACCUUCUCUCAGAGAUUAACA, the “pre-steady-state target cleavage rate” value is 0.0464 ± 0.0037. Consider UAGUGACAGUGCUUCUGUGAGAGAUUAUCA, for which the “pre-steady-state target cleavage rate” value was found to be 0.00666 ± 0.0037. With UAGUCCGUCACCUUCUCUGAGAGAUUAACA the figure was 0.228 ± 0.01; with UAGUGUGUCACCUUCACUGUGAGAUUAACA, 0.0373 ± 0.0044; with UAGUGACAGACCUUCUGUGAGAGAUUAACA, 0.087 ± 0.012.

Consider UAGUGACACACCUUCUCUGAGAGACUUAACA, for which the “pre-steady-state target cleavage rate” value is 0.118 ± 0.02. With UAGUGUGUCACCUCUCUGAGAGAUUAACA the figure was 0.163 ± 0.016; with UAGUGAGUCUCCUUCUCUGAGAGUUUAACA, 0.105 ± 0.027; with UAGUGAGUCACCUUCUCUGAGAGAUUAGACA, 0.118 ± 0.034. With UAGUGACAGACCUUCUCUGAGACAUUAACA the figure was 0.0292 ± 0.0045; with UAGUGUGUCACCUUCUCUCUGAGAUUAACA, 0.0138 ± 0.004. With UAGUGAGUCGACCUUCUCUGAGAGAUUAACA, the “pre-steady-state target cleavage rate” value is 0.11 ± 0.011.

In the case of UAGUCUGUCUGCUUCUCUGAGAGAUAUUGA, the “pre-steady-state target cleavage rate” value is below 0.0001.

As for UAGUGAGACACCUUCUCUGAGAGAUUAAGA, the “pre-steady-state target cleavage rate” value was found to be 0.0264 ± 0.011. With UAGUGACAGUCCUUCUCUGAGACUUUAACA the figure was below 0.0001.

For UAGUGAGUCACCUUCUCUGAGAAGAUUAACA, the “pre-steady-state target cleavage rate” value is 0.0726 ± 0.013. With UAGUGAGUCACCUUCUCUCAGAGAUUAACA the figure was 0.0499 ± 0.0073. Turning to UAGUCUUUCACCUUCUCUGAGAGAUUAACA, the “pre-steady-state target cleavage rate” value was found to be 0.116 ± 0.015.

As to UAGUGACAGUGCUUCUCAGAGAGAUUAUCA, the “pre-steady-state target cleavage rate” value stood at 0.00319 ± 0.0031. As for UAGUGACAGAGCUUCUCUGUGAGAUUAACA, the “pre-steady-state target cleavage rate” value was 0.0194 ± 0.0071. With UAGUGAGUCAGCUUCUCUGACAGAUUAACA the figure was 0.0266 ± 0.0058; with UAGUGUGUCACCUUCUCUGAGAGAUUUUCA, 0.119 ± 0.033. Consider UAGUGACUCACCUUCUCUGACAGAUUAAGA, for which the “pre-steady-state target cleavage rate” value came out at 0.00634 ± 0.004. With UAGUGAGUCACCUUCUCUGAGAGAUUAAACA the figure was 0.33 ± 0.049. Under UAGUGAGUCACCUUCUCUCAGAGAUUUACA stands 0.0192 ± 0.0098; under UAGUGUGUCACCUGUCUCUGAGAGAUUAACA, 0.175 ± 0.01.

Take UAGUGACAGACCUUCUCUGACAGAUUAACA: the “pre-steady-state target cleavage rate” value turned out to be 0.0282 ± 0.0053. For the sequence UAGUCAGUCACCUUCUGUGAGAGAUUAACA, the “pre-steady-state target cleavage rate” value is 0.187 ± 0.011.
